# This is one part of the list. The full chains were built here from the parent and the listed change. Inactive controls read about 0.05.
# B1: TEV protease; numbered along this chain (parent)
# chain: MGESLFKGPRDYNPISSSICHLTNESDGHTTSLYGIGFGPFIITNKHLFRRNNGTLVVQSLHGVFKVKDTTTLQQHLVDGRDMIIIRMPKDFPPFPQKLKFREPQREERICLVTTNFQTKSMSSMVSDTSCTFPSGDGIFWKHWIQTKDGQCGSPLVSTRDGFIVGIHSASNFTNTNNYFTSVPKNFMELLTNQEAQQWVSGWRLNADSVLWGGHKVFMVKPEEPFQPVKEATQL
# Variants of: B1
# Assay: raw area under fraction-flipped curve 0-4 h after induction (AUC4h, not background-subtracted), DNA-recorder readout of cleavage of the substrate (dimensionless); higher = more cleavage of the substrate by the protease variant
# Conditions: temperature: 34 °C; time window: 0-4 h after rhamnose induction
# Procedure: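 In vivo DNA recorder in E. coli TOP10(DE3) ΔrhaA at 34 °C. Each TEVp single-site mutant (parent TEVp 0) is paired with a single-site variant of the 7-mer TEVs (canonical ENLYFQ|S). The substrate sits between flexible linkers in a Bxb1-sfGFP-TEVs-SsrA fusion, so cleavage stabilises Bxb1 and speeds flipping of a recombination array, read by NGS. The value is the raw area under the fraction-flipped curve over 0-4 h after rhamnose induction (AUC4h), with ≥20 reads per time point. It is not background-subtracted; inactive controls average about 0.047.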
# 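Also: Bxb1 expression induced with 0.2% (w/v) L-rhamnose at OD600 near 0.5, cultures sampled hourly, flipped fraction per protease–substrate barcode pair counted by paired-end Illumina sequencing.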
Variant,area with substrate ENLYAQS,area with substrate ENLYDQS,area with substrate ENLYEQS,area with substrate ENLYGQS,area with substrate ENLYHQS,area with substrate ENLYIQS,area with substrate ENLYKQS,area with substrate ENLYNQS,area with substrate ENLYPQS,area with substrate ENLYQQS,area with substrate ENLYRQS,area with substrate ENLYSQS,area with substrate ENLYTQS,area with substrate ENLYVQS,area with substrate ENLYWQS,area with substrate ENLYLQS,area with substrate ENLYMQS,area with substrate ENLYYQS,area with substrate ENLYCQS
MGESLFKGPRDYNPISSSICHLTNESDGHTTSLYGIGFGPFIITNKHLFRRNNGTLVVQSLHGVFKVKDTTTLQQHLVDGRDMIIIRMPKDFPPFPQKLKFREPQREERICLVTTNFQTKSMSSMVSDTSCTFPSGDGIFWKHWIQTKDGQCGSPLVSTRDGFIVGIHSASNFTNTNNYFTSVPKNFMELLTNQEAQQWVSGWRLNADSVLWGGHKVFMVKPMEPFQPVKEATQL [E223M],0.0687,0.0634,0.0616,0.0542,0.0631,0.119,0.0567,0.0682,0.0593,0.068,0.0573,0.0726,0.11,0.101,0.051,,,,
MGESLFKGPRDYNPISSSICHLTNESDGHTTSLYGIGFGPFIITNKHLFRRNNGTLVVQSLHGVFKVKDTTTLQQHLVDGRDMIIIRMPKDFPPFPQKLKFREPQREERICLVTTNFQTKSMSSMVSDTSCTVPSGDGIFWKHWIQTKDGQCGSPLVSTRDGFIVGIHSASNFTNTNNYFTSVPKNFMELLTNQEAQQWVSGWRLNADSVLWGGHKVFMVKPEEPFQPVKEATQL [F133V],0.0597,0.064,0.0707,,0.0612,0.104,0.059,0.0588,0.0747,0.0584,0.0593,0.0557,,0.124,,0.0713,0.0828,0.0645,
MGESLFKGPRDYNPISSSICHLTNESDGHTTSLYGIGFGPFIITNVHLFRRNNGTLVVQSLHGVFKVKDTTTLQQHLVDGRDMIIIRMPKDFPPFPQKLKFREPQREERICLVTTNFQTKSMSSMVSDTSCTFPSGDGIFWKHWIQTKDGQCGSPLVSTRDGFIVGIHSASNFTNTNNYFTSVPKNFMELLTNQEAQQWVSGWRLNADSVLWGGHKVFMVKPEEPFQPVKEATQL [K46V],0.0685,0.0462,0.096,0.0598,0.0365,,0.0675,0.0614,0.0628,0.0704,0.0555,,,0.0337,,0.0603,,0.061,
MGESLFKGPRDYNPISSSICHLTNESDGHTTSLYGIGFGPFIITNKHLFRRNNGTLVVQSLHGVFKCKDTTTLQQHLVDGRDMIIIRMPKDFPPFPQKLKFREPQREERICLVTTNFQTKSMSSMVSDTSCTFPSGDGIFWKHWIQTKDGQCGSPLVSTRDGFIVGIHSASNFTNTNNYFTSVPKNFMELLTNQEAQQWVSGWRLNADSVLWGGHKVFMVKPEEPFQPVKEATQL [V67C],0.0787,0.0599,0.0691,0.0533,,0.122,,0.0428,,0.0745,0.0551,,0.0809,,0.0796,0.075,,,0.0955
MGEWLFKGPRDYNPISSSICHLTNESDGHTTSLYGIGFGPFIITNKHLFRRNNGTLVVQSLHGVFKVKDTTTLQQHLVDGRDMIIIRMPKDFPPFPQKLKFREPQREERICLVTTNFQTKSMSSMVSDTSCTFPSGDGIFWKHWIQTKDGQCGSPLVSTRDGFIVGIHSASNFTNTNNYFTSVPKNFMELLTNQEAQQWVSGWRLNADSVLWGGHKVFMVKPEEPFQPVKEATQL [S4W],0.0712,0.0706,0.0447,0.0732,0.0601,0.105,0.0304,0.0818,0.0705,,0.0707,0.0631,0.0629,0.0812,0.0757,0.0671,0.0833,0.0661,0.0849
MGESLFKGPRDYNPISSSICHLTNESDGHTTSLYGIGFGPFIITNKHLFRRNNGTLVVQSLHGVFKVKDTTTLQQHLVDGRDMIIIRMPKDFPPFPQKLKFREPQREERICLVTTNFQTKSMSSMVSDTSCTFPSGDGIFWKHWIQTKDGQCGSPLVSTRDGFIVGIHSASNFTNTNNYFTSVPKNFMELLTNQEAQQWVSGWRLNADSVHWGGHKVFMVKPEEPFQPVKEATQL [L211H],0.0837,0.0743,0.0665,,0.07,0.111,0.0709,0.0744,0.0667,,,,0.101,,0.0656,,,,0.0971
MGESLFKGPRDYNPISSSICHLTNESDGHTTSLYGIGFGPFIITNKHLFRRNNGTLVVQSLHGVFKVKDTTTLQQHLVDGRDMIIIRMPKDFPPFPQKLKFREPQREERICLVTTNFQTKSMSSMVSDTSCTFPSGDGIFWKHWIQTKDQQCGSPLVSTRDGFIVGIHSASNFTNTNNYFTSVPKNFMELLTNQEAQQWVSGWRLNADSVLWGGHKVFMVKPEEPFQPVKEATQL [G150Q],0.0642,0.0602,0.0566,0.0731,0.0507,,0.0639,,0.0609,0.058,0.0661,,,,0.0768,,0.0734,,0.0643
MGESLFKGPRDYNPISSSICHLTNESDGHTTSLYGIGFGPFIITNKHLFRRNNGTLVVQSLHGVFKVKDTTTLQQHLVDGRDMIIIRMPKDFPPFPQKLKFREPQREERICLVTTNFQTKSMSSMVSDTSCTFPSGDGIFWKHWIQTKDGQCGSPLVSTRDGFIGGIHSASNFTNTNNYFTSVPKNFMELLTNQEAQQWVSGWRLNADSVLWGGHKVFMVKPEEPFQPVKEATQL [V165G],0.0573,0.0449,0.0556,0.0538,0.0412,0.0558,0.0349,0.0405,0.0519,0.0532,0.0563,,,0.0705,0.0523,,0.0695,,
MGESLFKGPRDYNPISSSICHLTNESDGHTTSLYGIGFGPFIITNKHLFRRNNGTLVVQSLHGVFKVKDTTTTQQHLVDGRDMIIIRMPKDFPPFPQKLKFREPQREERICLVTTNFQTKSMSSMVSDTSCTFPSGDGIFWKHWIQTKDGQCGSPLVSTRDGFIVGIHSASNFTNTNNYFTSVPKNFMELLTNQEAQQWVSGWRLNADSVLWGGHKVFMVKPEEPFQPVKEATQL [L73T],0.0506,0.062,0.0642,0.058,0.0682,,0.0498,0.0621,0.0694,0.0606,,0.0671,0.0578,0.0828,0.0652,,0.0318,,
MGESLFKGPRDYNPISSSICHLTNESDGHTTSLYGIGFGPFIITNKHLFRRNNGTLVVQSLHGVFKVKDTTTLQQHLVDGRDMIIIRMPKDFPPFPQKLKFREPQREERICLVTTNFQTKSMSSMVSDTSCTFPSGDGIFWKHWIQTKDGQCGSPLVSTRDGFIVGIHSASNFTNTNNYFTSVPKNFMELLTNQEAQQWVSGWRLNADSVLWGGHKVFMVKPEEPFQPVKEANQL [T233N],0.0749,0.0529,0.0675,0.109,0.0775,0.155,0.0573,0.0558,0.0668,,0.06,0.0671,,0.123,,,,0.0674,
MGESLFKGPRDYNPISSEICHLTNESDGHTTSLYGIGFGPFIITNKHLFRRNNGTLVVQSLHGVFKVKDTTTLQQHLVDGRDMIIIRMPKDFPPFPQKLKFREPQREERICLVTTNFQTKSMSSMVSDTSCTFPSGDGIFWKHWIQTKDGQCGSPLVSTRDGFIVGIHSASNFTNTNNYFTSVPKNFMELLTNQEAQQWVSGWRLNADSVLWGGHKVFMVKPEEPFQPVKEATQL [S18E],0.0724,0.0618,,0.0641,0.0713,0.144,,0.0615,0.0799,0.0448,0.0605,,0.0735,0.137,0.0808,,0.0874,0.0623,
MGESLFKGPRDYNPISSSICHLTNESDGHTTSLYGIGFGPFIITNKHLFRRNNGTLVVQSLHGVFKVKDTTTLQQHLVDGRDMIIIRMPKDFPPFPQKLKFREPQREERICLVTTNFQTKSMSSMVSDTSCTFPSGDGIFWKHWIQTKDGQCGSPLVSTRDGFIVGIHSASNFTNTNNYFTSVPKNFMELLTGQEAQQWVSGWRLNADSVLWGGHKVFMVKPEEPFQPVKEATQL [N193G],0.0638,0.053,0.0528,0.0685,0.0466,0.0916,0.0635,,,,0.0676,,0.104,,,,,,
MGESLFKGPRHYNPISSSICHLTNESDGHTTSLYGIGFGPFIITNKHLFRRNNGTLVVQSLHGVFKVKDTTTLQQHLVDGRDMIIIRMPKDFPPFPQKLKFREPQREERICLVTTNFQTKSMSSMVSDTSCTFPSGDGIFWKHWIQTKDGQCGSPLVSTRDGFIVGIHSASNFTNTNNYFTSVPKNFMELLTNQEAQQWVSGWRLNADSVLWGGHKVFMVKPEEPFQPVKEATQL [D11H],0.0758,0.0626,0.0699,0.0652,0.0673,,0.0537,0.0654,0.0773,0.0619,0.0715,0.0758,,0.118,0.0777,,0.0846,0.0834,
MGESLFKGPRDYNPISSSICHLTNESDGHTTSGYGIGFGPFIITNKHLFRRNNGTLVVQSLHGVFKVKDTTTLQQHLVDGRDMIIIRMPKDFPPFPQKLKFREPQREERICLVTTNFQTKSMSSMVSDTSCTFPSGDGIFWKHWIQTKDGQCGSPLVSTRDGFIVGIHSASNFTNTNNYFTSVPKNFMELLTNQEAQQWVSGWRLNADSVLWGGHKVFMVKPEEPFQPVKEATQL [L33G],0.0717,0.0682,0.069,0.0552,0.0685,0.0819,0.0642,0.0565,0.0833,0.0597,0.0704,0.071,,0.0796,0.0822,,,0.0494,
MGESLFKGPRDYNPISSSICHLTNESDGHTTSLYGIGFGPFIITNKHLFRRNNGTLVVMSLHGVFKVKDTTTLQQHLVDGRDMIIIRMPKDFPPFPQKLKFREPQREERICLVTTNFQTKSMSSMVSDTSCTFPSGDGIFWKHWIQTKDGQCGSPLVSTRDGFIVGIHSASNFTNTNNYFTSVPKNFMELLTNQEAQQWVSGWRLNADSVLWGGHKVFMVKPEEPFQPVKEATQL [Q59M],0.0635,0.057,0.0632,0.078,0.061,0.144,0.0618,0.0631,0.069,0.0564,0.0621,0.0765,0.0874,0.125,0.092,,0.0987,,0.0755
MGESLFKGPRDYNPISSSICHLTNESDGHTTSLYGIGFGPFIITFKHLFRRNNGTLVVQSLHGVFKVKDTTTLQQHLVDGRDMIIIRMPKDFPPFPQKLKFREPQREERICLVTTNFQTKSMSSMVSDTSCTFPSGDGIFWKHWIQTKDGQCGSPLVSTRDGFIVGIHSASNFTNTNNYFTSVPKNFMELLTNQEAQQWVSGWRLNADSVLWGGHKVFMVKPEEPFQPVKEATQL [N45F],0.0608,0.0753,0.0623,,0.0647,0.0659,0.0628,,,0.0618,0.069,0.0451,,0.0538,0.0646,,0.0664,,
MGESLFKGPRDYNPISSSICHLTNESDGHTTSLYGIGFGPFIITNKHLFRRNNGTLVVQSLHGVFKVKDTTTLQQHLVDGRDMIIIRMPKDFPPFPQKLKFREPQREERICLVTTNFQTKSMSSMVSDTSCTFPSGDGIFWKHWIQTKDGQCGSPLVSTRDGFIVGIHSASNFTNTNNYFTSVPKNFMELLTNQEAQQWVSGWRLNADSSLWGGHKVFMVKPEEPFQPVKEATQL [V210S],0.0829,0.0485,0.0673,0.0781,0.0618,0.135,0.0548,0.0549,0.0395,0.0646,0.0504,0.0558,0.0659,,0.108,,0.0616,0.0583,
MGESLFKGPRDYNPISSSICHLTNESDGHTTSLYGIGFGPFIITNKHLFRRNNGTLVVQSLHGVFKVKDTTTLRQHLVDGRDMIIIRMPKDFPPFPQKLKFREPQREERICLVTTNFQTKSMSSMVSDTSCTFPSGDGIFWKHWIQTKDGQCGSPLVSTRDGFIVGIHSASNFTNTNNYFTSVPKNFMELLTNQEAQQWVSGWRLNADSVLWGGHKVFMVKPEEPFQPVKEATQL [Q74R],0.0597,0.0626,0.0569,,0.046,0.0888,0.0732,,0.0693,,,0.137,,,0.0727,,0.0845,,0.0739

# — the supplement of paper PMC12217912
